Reference: PubChem BioAssay AID588453 (National Center for Advancing Translational Sciences (NCATS), 2011)
Values joined by “and” are separate entries in the source; they are usually repeats but may differ in a detail not shown here. Equal values may be shown once. The whole screen tested about 390,000 compounds, of which about 4,000 (1%) were called active. Inconclusive results, whose numbers are uncertain, are shown with a selection of clear calls. Calls follow the shape of the dose curve; as a rule, active = well fitted inhibition curve with a large enough effect; inconclusive = small, poorly fitted or top-dose-only effect; inactive = no such curve, though single readings can be large or run the other way. Potencies beside an inconclusive call are fits to weak or partial responses and may not hold up.
Also: nearly all actives have a fitted effect of over 65% in size.
Potency is read from the fitted curve at half-maximal effect; tags tell the direction and shape of the fitted curve.

The molecules below were run against Thioredoxin reductase 1, cytoplasmic (Rattus norvegicus) (UniProt O89049) (assay: qHTS Assay for Inhibitors of Mammalian Selenoprotein Thioredoxin Reductase 1 (TrxR1): qHTS). Conditions: recombinant rTrxR1, NADPH fluorescence consumption, selenite substrate; series mostly up to 114 µM.
Sequence of UniProt O89049 (O89049 whole entry, looked up): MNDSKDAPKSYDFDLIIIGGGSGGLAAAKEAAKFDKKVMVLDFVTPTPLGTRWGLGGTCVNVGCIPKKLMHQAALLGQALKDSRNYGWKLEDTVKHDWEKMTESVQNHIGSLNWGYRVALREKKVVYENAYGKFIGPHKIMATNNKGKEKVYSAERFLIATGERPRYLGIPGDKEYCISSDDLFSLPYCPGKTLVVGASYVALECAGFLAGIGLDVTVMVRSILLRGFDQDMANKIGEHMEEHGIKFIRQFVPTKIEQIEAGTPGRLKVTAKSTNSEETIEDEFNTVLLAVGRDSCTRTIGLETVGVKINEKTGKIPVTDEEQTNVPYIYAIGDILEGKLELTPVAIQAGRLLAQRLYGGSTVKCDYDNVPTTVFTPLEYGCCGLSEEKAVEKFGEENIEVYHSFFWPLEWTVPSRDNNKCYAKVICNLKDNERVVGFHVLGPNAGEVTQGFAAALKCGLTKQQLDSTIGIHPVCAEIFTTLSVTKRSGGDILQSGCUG
Procedure, shortened: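 Rat TrxR1 (90 nM in the dispensed reagent) was pre-reduced with 400 uM NADPH for 5 min at room temperature, then incubated with compound for 15 min. After 400 uM selenite was added, NADPH fluorescence (Ex 340/Em 450 nm) was followed for 8 min.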
In the case of `CNS(=O)(=O)c1ccc(-c2ccc(C=C3C(=O)NC(=O)NC3=O)o2)cc1`, the Potency is reported as inconclusive: 44.7 µM [inhibitor, partial curve]. For `Clc1ccc(-c2nc3ccc(Cl)cn3c2CN2CCCCC2)cc1`, the Potency was “inactive”. In the case of `CCCCN1CCC(O)(c2ccccc2)C(C(=O)c2ccccc2)C1` (stereo not drawn), the Potency is reported as inconclusive: 0.447 µM [inhibitor, full curve, poor fit]. `COC(=O)c1ccc(N2C(=O)CC(N3CCC(n4c(=O)[nH]c5ccccc54)CC3)C2=O)cc1` (stereo not drawn) was tested, and the Potency was inconclusive: 25.1 µM [inhibitor, partial curve, poor fit]. With `O=C1NC(=S)N(c2ccc(F)cc2)C(=O)/C1=C/c1ccccc1O` the Potency was inconclusive: 15.8 µM [inhibitor, full curve]. With `O=[N+]([O-])c1cc2c(cc1CNCCc1ccc3c(c1)OCO3)OCO2` the Potency was inconclusive: 79.4 µM [inhibitor, partial curve, poor fit]. For `Cc1cc(Br)ccc1N1C(=O)CC(=O)NC1=O`, the Potency was inconclusive: 35.5 µM [inhibitor, partial curve, poor fit]. `COc1ccc(CNCCc2c(C)[nH]c3ccc(OC(F)(F)F)cc23)c(OC)c1` was tested, and the Potency was inconclusive: 79.4 µM [inhibitor, partial curve, poor fit]. In the case of `CN(C)c1ccc(/C=C2\C(=O)NC(=O)N(CCc3ccc(F)cc3)C2=O)cc1`, the Potency is reported as inconclusive: 10 µM [inhibitor, full curve, poor fit]. In the case of `CCOP(=O)(C1=C(O)C(=O)C(C(C)(C)C)=CC1=O)c1ccccc1` (stereo not drawn), the Potency is reported as active: 4.47 µM. For `CCc1ccc(NC(=S)NC2CC3CCC(C2)N3Cc2ccco2)cc1` (stereo not drawn), the Potency was inconclusive: 2.24 µM [inhibitor, partial curve, poor fit]. For `CC(C)(C)c1cc(C=C(C#N)C#N)cc(C(C)(C)C)c1O`, the Potency was inconclusive: 44.7 µM [inhibitor, partial curve] and inconclusive: 16.8 µM [inhibitor, partial curve]. With `CCCCN1C(=O)/C(=C/C=C/c2ccco2)C(=O)NC1=S` the Potency was inconclusive: 15.8 µM [inhibitor, partial curve]. `CCN(CC)c1ccc(/C=C2/C(=O)NC(=O)N(Cc3ccco3)C2=O)cc1` was tested, and the Potency was active: 35.5 µM. `Cc1cc(/C=C2\C(=O)NC(=O)N(Cc3ccco3)C2=O)c(C)n1-c1ccc(C(=O)O)cc1` was tested, and the Potency was inconclusive: 79.4 µM [inhibitor, partial curve, poor fit]. For `CCCCOCCCn1c(N)c(C(=O)OC(C)COC)c2nc3ccccc3nc21` (stereo not drawn), the Potency was inconclusive: 25.1 µM [inhibitor, single point]. In the case of `Cc1c(C(c2ccc(O)cc2)c2c(O)c3ccccc3oc2=O)c(=O)n(-c2ccccc2)n1C` (stereo not drawn), the Potency is reported as inconclusive: 56.2 µM [inhibitor, partial curve, poor fit]. With `Cc1ccccc1-c1nc(CS(=O)CC(=O)N2CCC3(CC2)OCCO3)c(C)o1` (stereo not drawn) the Potency was inconclusive: 12.6 µM [inhibitor, partial curve]. `NNC(=O)CN1C(=O)CN=C(c2ccccc2)c2cc(Br)ccc21` was tested, and the Potency was “inactive”. With `CCOC(=O)c1ncn2c1[C@@H]1CCCN1C(=O)c1cc(OC)ccc1-2` the Potency was “inactive”. For `CCOC(=O)CC(SP1(=S)OCC2(CCCCC2)CO1)C(=O)OCC` (stereo not drawn), the Potency was “inactive”. `C/C(=C/C=C/[C@@H](C)C(=O)O)[C@H]1CN[C@H](C(=O)O)[C@H]1CC(=O)O` was tested, and the Potency was inconclusive: 14.1 µM [inhibitor, partial curve]. For `COc1ccc(-n2c(-c3ccccc3)nc3ccccc3c2=O)cc1`, the Potency was “inactive”. With `CCCCn1c(O)c(C(C)=Nc2c(C)n(C)n(-c3ccccc3)c2=O)c(=O)[nH]c1=O` the Potency was inconclusive: 70.8 µM [inhibitor, partial curve]. `Cn1ncc2c(NCc3ccco3)ncnc21` was tested, and the Potency was inconclusive: 79.4 µM [inhibitor, partial curve]. `N#CCCn1cc(C(=O)NCc2ccccc2)c(-c2ccccc2)n1` was tested, and the Potency was “inactive”. In the case of `CCN1CCN(CC(=O)c2c(C)n(Cc3ccccc3)c3ccc(OC)cc23)CC1`, the Potency is reported as inconclusive: 79.4 µM [inhibitor, single point]. For `O=C1NC(=O)[C@]2(Cc3ccccc3N3CCN(c4ccccc4)CC32)C(=O)N1c1ccccc1` (stereo partly drawn), the Potency was inconclusive: 56.2 µM [inhibitor, partial curve, poor fit]. In the case of `C/C=C(/C)C(=O)O[C@H]1C(C)=C2[C@H]([C@@H]1OC(=O)CCCCCCC)[C@@](C)(OC(C)=O)C[C@H](OC(=O)CCC)[C@@]1(O)[C@H]2OC(=O)[C@@]1(C)O`, the Potency is reported as inconclusive: 25.1 µM [inhibitor, partial curve]. `CCCCn1c(O)c(C(CC)=Nc2ccc(C(=O)O)cc2)c(=O)[nH]c1=O` was tested, and the Potency was “inactive”. In the case of `CN1CCC2(CC1)C(C#N)=C(N)NC(S)=C2C#N`, the Potency is reported as inconclusive: 1 µM [inhibitor, full curve, poor fit] and inconclusive: 708 nM [inhibitor, full curve, poor fit]. `O=C1CC(N2CC=C(c3ccc(F)cc3)CC2)C(=O)N1c1ccc(F)cc1` (stereo not drawn) was tested, and the Potency was inconclusive: 56.2 µM [inhibitor, partial curve]. For `CCCc1nnc(NC(=O)CCC(=O)N2CCN(CCOC(c3ccccc3)c3ccccc3)CC2)s1`, the Potency was “inactive”. `CC(=O)c1ccc2c(c1)C1C(Cl)C(Sc3ccccc3[N+](=O)[O-])CC1C(C(=O)O)N2` (stereo not drawn) was tested, and the Potency was inconclusive: 56.2 µM [inhibitor, partial curve, poor fit]. In the case of `c1ccc2c(c1)OCC(C1=NCCN1)O2` (stereo not drawn), the Potency is reported as inconclusive: 56.2 µM [inhibitor, partial curve] and inconclusive: 50.1 µM [inhibitor, partial curve] and inconclusive: 7.52 µM [inhibitor, full curve]. In the case of `CC12CC[C@H]3[C@@H](CCC4(O)C[C@H](O)CCC34/C=N/NC(=O)c3ccc(O)cc3)C1(O)CCC2C1=CC(=O)OC1` (stereo partly drawn), the Potency is reported as “inactive”. In the case of `N#Cc1c(Cl)c(Cl)c(Cl)c(C#N)c1Cl`, the Potency is reported as active: 0.282 µM. `[O]=[Sb]([OH])([OH])[c]1ccccc1` was tested, and the Potency was active: 6.31 µM.
